Among the data in the RNAGym collection of RNA variant scans (doi:10.1093/nar/gkz1192) are self-cleavage values, retold here.

The source gives no read counts; variants with many changes may rest on few reads.

To fix the notation:
B1: CPEB3 Ribozyme (parent)
chain: UAACAGGGGGCCACAGCAGAAGCGUUCACGUCGCAGCCCCUGUCAGAUUCUGGUGAAUCUGCGAAUUCUGCUGUAUAUCUC

In this data set the parent is B1. In words: self-cleavage, relative activity (ratio to wild type); higher = more cleavage; in vitro, sequencing. In outline: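 CPEB3 self-cleaving ribozyme mutant libraries were made by rounds of error-prone PCR, barcoded, and transcribed in vitro with T7 RNA polymerase for 5 hours at 37°C. Cleavage occurred during transcription and a 15 min DNase I step before EDTA stop. RNAs were reverse transcribed with template switching and Illumina-sequenced, with DNA sequencing mapping barcodes to variants. Relative activity is the variant's cleaved/total read fraction divided by wild type's (minimum 5 reads), averaged across three batches.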
In the case of UAACAGAGGGCCACAGCGGAAGCGUUCACUUCGCAGCCCCUGUCAGAUUCUGGUGAAUCUGCGAAUUCUGCUGUAUAUCUC, the self-cleavage came to 0.06. As to UAACAUGGGGCCACAGCAGAAGCGUUCACGUUGCAGCCCCUGUCGGACUCUGGUGAAUCUGCGAAUUCUGCUGUAUUUCUC, the self-cleavage was 0.15. Next, UAACAUGGGGCCACAGCAGGGGCGUUCACGUCGCAGCCCCUGUCAGAUUCUGGUGAAUCUGCGAAUUCUGCUGUAUAUCUC: 0.59. To UAACAGAGGGCCACAGCAGAGGCGUUCACGUCGCAGCCCCUGUCUGAUUCUGGUGAAUCUGCGAAUUCUGCUGGAUACCUC belongs 0.26; to UAACAGAGGGCCGCAGCAGAAGCGUUCACGUCCCAGCCCCUGUCAGAUUCUGGUGAAUCUGCGAAUUCUGCUGUAUACCUC, 0.2. To UAACAGAGGGCCACAGCAGAAGCGUUCGCGUCGCUGCCCCUGUCAGAUUCUGGUGAAUCUGCGAAUUCUGCUGUAUAUCUC belongs 0.06. In the case of UAACAGAGGGCCACAGCUGAAGCGUUCACGUCGCAGCCCCUGUCAGAUUCUGGUGAAUCUGCGAAUUCUGCUGUGUAUCUC, the self-cleavage came out at 0.03.

Take UAACAGAGGGCCUCAGCAGAAGCGCUCACGCCGCAGCCCCUGUCAGAUUCUGGUGAAUCUGCGAAUUCCGCUGUACAUCUC: the self-cleavage was determined as 0.04.

With UAACAUGGGGCCACAGCAGGAGCGUCCACGUCGCAGCCCUUGUCAGAUUCUGGUGAAUCUGCGUAUUCUGCUGUAUAUCUC, the self-cleavage came out at 0.05. Take UAACAUGAGGCCACAGCAGAAGCGUUCACGUCGCAGUCCCUGUCGGAUUCUGGCGAAUCUGCGAAUUCUGCUGGAUAUCUC: the self-cleavage was 0.07. To UAACAUGGGGCCACAGCAGGAGCGUUCACGUCGCUGCCCCUGUCAGAUUCUGGUGAAUCUGCGAAUUCUGCUGUAUAUCUC belongs 0.39. In the case of UAACAGAGGGCCACAGCAGUAGCGUUCACGUCGCAGCCCCUGUCAGAUUCUGGUGAGUCUGCGAAUUCUGCUGUAUAUCUC, the self-cleavage came to 0.28.

For UAACAUGGGGCCACAGCAGAAGCGUUCACGUUGCAGCCCCUGUCAGAUUCUGGUGAAUCUGCGGAUUCUGCUGUAUAUCUC, the self-cleavage was 0.2.

Regarding UAACAGAGGGCCACGGCAGAAGCGUUCACGUCACAGCCCCAGUCAGAUUCUGGUGAGUCCGCGAAUUCUGCUGUAUAUCUC, the self-cleavage was determined as 0.04. UAACAUGGGGCCACAGCAGAAGCGUCCACGUCGCAGCCCUUGUCAGAUUCUGGUGAAUCUGCGAAUUCUGCAGGAUAUCUC: the self-cleavage turned out to be 0.08. Next, UAACAGAGGGCCGCGGCAGAAGCGUCCACGUCGCAGCCCCUGUCAGAUUCUGGUGAAUCUGCGAAUUCUGCUGUAUAUCUC: 0.08; UAACAGAGGGCCACGGCUGAAGCGUUCACGUCGCAGCACCUGUCAGAUUCUGGUGGAUCUGCGAAUUCUGCUGUAUAUCUC: 0.25; UAACAUGGAGCCACAGCAGAAGCGCUCACGUCGCAGCCCCAGUCAGAUUCUGGUGAACCUGCGAAUUCCGCUGUAUAUCUC: 0.05. As to UAACAUGGGGUCUCAGCAGUAGCGUUCACGUCGCAGCCCCUGUCAGAUUCUGGUGAACCUGCGAAUCCUGCUGUAUAUCUC, the self-cleavage worked out at 0.03. Regarding UAACAUGGGGCCACAGCAGAAGAGUUCACGUCGCAGCCCCUGUCAGAUUCUGAUGAAUCUGCGAAUUCUGCUGUAUAUCUC, the self-cleavage is 0.25. Next, UAACAUGGGGCCACAGCAGAAGCGUUCACGUCGCAGCCCCUGUCGGAUUCUGGUGAAUCUGCAAGUUCAGCUGUAUAUCUC: 0.07. Next, UAACAGAGGGCCACAGCAGAGGCGCUCACGUCGCAGCCUCUGUCAGAUUCUGGUGAAUCAGCGAAUUCUGCUGUAUAUCAC: 0.07; UAACAGAGGGCCACAGCAGUAGCGUUCGCGUCGCAGCCCCUGUCAGAUUCUGGUGAAUCUGCGAAUUCUGCUGUAUAUCUC: 0.08; UAACAUGGGGCCACAGCAGAAGCGUACACGGCGCAGCCCCUGUCAGAUUCUGGUGAAUCUGCGAAUUCUGCUGUAUACCUC: 0.13. Next, UAACAGAGGGCCACAGCGGAAGUGUUCACGUCGUAGCCCCUGUCAGAUCCUGGUGAAUCUGCGAAUUCUGCUGUAUAUCUC: 0.35; UAACAUGGGGCCAUAGCAGAGGCGUUCACGUCGCAGCCCCUGUCAGAUUCUGGUGAAUCUGCGAAUUCUGCUGUAUAUCUC: 0.11. In the case of UAACAGAGGGCCGCAGCAGGAGCGUUCACGUCGCAGCCCCUGUCAGACUCUGGUGAAUCUGCGAGUUCUGCUGUAUAUCUC, the self-cleavage came out at 0.08. For the variant UAACAUGGGGCCACAGCAGAAGCGAUCACGUCGCAGCCCCUGCCAGAUUCUGGUGAAUCUGCGAAUUCUGCUGUAUAUCUC, the self-cleavage stood at 0.2. As for UAACAGAGGGCCACCGCAUAAGCGUUCACGUCGCUGCCCCUGUCAGAUCCUGGAGAAUCUGCGAAUUCUGCUGUACAUCUC, the self-cleavage worked out at 0.04. Turning to UAACAGAGGGCCACAGCGGAAGCGUUCGCGUCGCAGCCCCUGUCAGAUUCUGGUGAAUCUGCGAAUUCUGCUGUGUAUCUC, the self-cleavage turned out to be 0.23.

With UAACAGAGGGCCGCAGCAGAAGCGUUCACGUCGCAGCCCCAGUCAGAUUCUGGUGAAUCUGCGAAUUCUGCUGUAUAUCUC, the self-cleavage came out at 0.07. As for UAACAUGGGGCCACAGCAGAAGCGUUCACGCCGCAGCCCCUGUCAGAUUCUGGUGAGUCUGCGAAUUCUGCUGUAUAUCUC, the self-cleavage was 0.26. Next, UAACAUGGGGCAACAGCAGAAGCGUACACGUCGCAGCCCCUGUCAGAUUCAGGUGAAUCUGCGGAUUCUGCCGUAUAUCUC: 0.08; UAACAUGGGGCCACAGCAGAAGCGUUCACGUCGCAGCCCCUGCCAGAUUCUGGUGAAUCUGCGAAUUCUGCUCAAUAUCUC: 0.34.
